Measurements from the supplement of paper PMC12423691.
The other results are listed elsewhere or left out. Binding of human transcription factors and regulators to the viral nucleoprotein by AlphaScreen, crude cell-free proteins, amounts not normalised, one pass. Fold of the Venus control; higher = more signal. No active / inactive call. Single-pass screen; sequences are the whole Swiss-Prot entries looked up by name.

B1: SLC26A3, P40879 (protein)
chain: MIEPFGNQYIVARPVYSTNAFEENHKKTGRHHKTFLDHLKVCCSCSPQKAKRIVLSLFPIASWLPAYRLKEWLLSDIVSGISTGIVAVLQGLAFALLVDIPPVYGLYASFFPAIIYLFFGTSRHISVGPFPILSMMVGLAVSGAVSKAVPDRNATTLGLPNNSNNSSLLDDERVRVAAAASVTVLSGIIQLAFGILRIGFVVIYLSESLISGFTTAAAVHVLVSQLKFIFQLTVPSHTDPVSIFKVLYSVFSQIEKTNIADLVTALIVLLVVSIVKEINQRFKDKLPVPIPIEFIMTVIAAGVSYGCDFKNRFKVAVVGDMNPGFQPPITPDVETFQNTVGDCFGIAMVAFAVAFSVASVYSLKYDYPLDGNQELIALGLGNIVCGVFRGFAGSTALSRSAVQESTGGKTQIAGLIGAIIVLIVVLAIGFLLAPLQKSVLAALALGNLKGMLMQFAEIGRLWRKDKYDCLIWIMTFIFTIVLGLGLGLAASVAFQLLTIVFRTQFPKCSTLANIGRTNIYKNKKDYYDMYEPEGVKIFRCPSPIYFANIGFFRRKLIDAVGFSPLRILRKRNKALRKIRKLQKQGLLQVTPKGFICTVDTIKDSDEELDNNQIEVLDQPINTTDLPFHIDWNDDLPLNIEVPKISLHSLILDFSAVSFLDVSSVRGLKSILQEFIRIKVDVYIVGTDDDFIEKLNRYEFFDGEVKSSIFFLTIHDAVLHILMKKDYSTSKFNPSQEKDGKIDFTINTNGGLRNRVYEVPVETKF
B2: TP63, Q9H3D4 (protein)
chain: MNFETSRCATLQYCPDPYIQRFVETPAHFSWKESYYRSTMSQSTQTNEFLSPEVFQHIWDFLEQPICSVQPIDLNFVDEPSEDGATNKIEISMDCIRMQDSDLSDPMWPQYTNLGLLNSMDQQIQNGSSSTSPYNTDHAQNSVTAPSPYAQPSSTFDALSPSPAIPSNTDYPGPHSFDVSFQQSSTAKSATWTYSTELKKLYCQIAKTCPIQIKVMTPPPQGAVIRAMPVYKKAEHVTEVVKRCPNHELSREFNEGQIAPPSHLIRVEGNSHAQYVEDPITGRQSVLVPYEPPQVGTEFTTVLYNFMCNSSCVGGMNRRPILIIVTLETRDGQVLGRRCFEARICACPGRDRKADEDSIRKQQVSDSTKNGDGTKRPFRQNTHGIQMTSIKKRRSPDDELLYLPVRGRETYEMLLKIKESLELMQYLPQHTIETYRQQQQQQHQHLLQKQTSIQSPSSYGNSSPPLNKMNSMNKLPSVSQLINPQQRNALTPTTIPDGMGANIPMMGTHMPMAGDMNGLSPTQALPPPLSMPSTSHCTPPPPYPTDCSIVSFLARLGCSSCLDYFTTQGLTTIYQIEHYSMDDLASLKIPEQFRHAIWKGILDHRQLHEFSSPSHLLRTPSSASTVSVGSSETRGERVIDAVRFTLRQTISFPPRDEWNDFNFDMDARRNKQQRIKEEGE
B3: FOXB1, Q99853 (protein)
chain: MPRPGRNTYSDQKPPYSYISLTAMAIQSSPEKMLPLSEIYKFIMDRFPYYRENTQRWQNSLRHNLSFNDCFIKIPRRPDQPGKGSFWALHPSCGDMFENGSFLRRRKRFKVLKSDHLAPSKPADAAQYLQQQAKLRLSALAASGTHLPQMPAAAYNLGGVAQPSGFKHPFAIENIIAREYKMPGGLAFSAMQPVPAAYPLPNQLTTMGSSLGTGWPHVYGSAGMIDSATPISMASGDYSAYGVPLKPLCHAAGQTLPAIPVPIKPTPAAVPALPALPAPIPTLLSNSPPSLSPTSSQTATSQSSPATPSETLTSPASALHSVAVH
B4: ETV1, P50549 (protein)
chain: MDGFYDQQVPYMVTNSQRGRNCNEKPTNVRKRKFINRDLAHDSEELFQDLSQLQETWLAEAQVPDNDEQFVPDYQAESLAFHGLPLKIKKEPHSPCSEISSACSQEQPFKFSYGEKCLYNVSAYDQKPQVGMRPSNPPTPSSTPVSPLHHASPNSTHTPKPDRAFPAHLPPSQSIPDSSYPMDHRFRRQLSEPCNSFPPLPTMPREGRPMYQRQMSEPNIPFPPQGFKQEYHDPVYEHNTMVGSAASQSFPPPLMIKQEPRDFAYDSEVPSCHSIYMRQEGFLAHPSRTEGCMFEKGPRQFYDDTCVVPEKFDGDIKQEPGMYREGPTYQRRGSLQLWQFLVALLDDPSNSHFIAWTGRGMEFKLIEPEEVARRWGIQKNRPAMNYDKLSRSLRYYYEKGIMQKVAGERYVYKFVCDPEALFSMAFPDNQRPLLKTDMERHINEEDTVPLSHFDESMAYMPEGGCCNPHPYNEGYVY
B5: SIVA1, O15304 (protein)
chain: MPKRSCPFADVAPLQLKVRVSQRELSRGVCAERYSQEVFEKTKRLLFLGAQAYLDHVWDEGCAVVHLPESPKPGPTGAPRAARGQMLIGPDGRLIRSLGQASEADPSGVASIACSSCVRAVDGKAVCGQCERALCGQCVRTCWGCGSVACTLCGLVDCSDMYEKVLCTSCAMFET
B6: NKX6-2, Q9C056 (protein)
chain: MDTNRPGAFVLSSAPLAALHNMAEMKTSLFPYALQGPAGFKAPALGGLGAQLPLGTPHGISDILGRPVGAAGGGLLGGLPRLNGLASSAGVYFGPAAAVARGYPKPLAELPGRPPIFWPGVVQGAPWRDPRLAGPAPAGGVLDKDGKKKHSRPTFSGQQIFALEKTFEQTKYLAGPERARLAYSLGMTESQVKVWFQNRRTKWRKRHAVEMASAKKKQDSDAEKLKVGGSDAEDDDEYNRPLDPNSDDEKITRLLKKHKPSNLALVSPCGGGAGDAL
B7: ONECUT1, Q9UBC0 (protein)
chain: MNAQLTMEAIGELHGVSHEPVPAPADLLGGSPHARSSVAHRGSHLPPAHPRSMGMASLLDGGSGGGDYHHHHRAPEHSLAGPLHPTMTMACETPPGMSMPTTYTTLTPLQPLPPISTVSDKFPHHHHHHHHHHHPHHHQRLAGNVSGSFTLMRDERGLASMNNLYTPYHKDVAGMGQSLSPLSSSGLGSIHNSQQGLPHYAHPGAAMPTDKMLTPNGFEAHHPAMLGRHGEQHLTPTSAGMVPINGLPPHHPHAHLNAQGHGQLLGTAREPNPSVTGAQVSNGSNSGQMEEINTKEVAQRITTELKRYSIPQAIFAQRVLCRSQGTLSDLLRNPKPWSKLKSGRETFRRMWKWLQEPEFQRMSALRLAACKRKEQEHGKDRGNTPKKPRLVFTDVQRRTLHAIFKENKRPSKELQITISQQLGLELSTVSNFFMNARRRSLDKWQDEGSSNSGNSSSSSSTCTKA

What follows are binders tested against nucleoprotein N of Crimean-Congo hemorrhagic fever virus (assay: AlphaScreen luminescence signal relative to Venus negative control (fold); higher = stronger binding to CCHFV N).
Method: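 AlphaScreen binding of cell-free made, FLAG-GST-tagged human transcription factors and regulators (crude translation products) to biotinylated N protein; signal as fold of the FLAG-GST-Venus control. One pass.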

Binder	AlphaScreen luminescence signal
B1	4.93
B2	2.19
B3	2.7
B4	1.53
B5	2.05
B6	2.88
B7	1.58
